# About 1,200 (2.5%) of roughly 48,000 compounds were called active. About 2% were inconclusive and are not listed.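 The calls were made as follows: active = activation of at least 60% and not above a set upper limit (about 1 call in 100 departs from these limits); inconclusive = activation of 40% to 60%, or above that upper limit; inactive = activation under 40%.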 This is one part of the list.
# Target: Probable G-protein coupled receptor 32 (Homo sapiens) (UniProt O75388)
# Assay: qHTS for Agonists of Human Resolvin D1 Receptor DRV1; also: 0% is about no effect
# Settings: CHO-K1 GPR32 beta-arrestin PathHunter luminescence, 90 min; at 76.9 µM; stronger effect = higher value; zero percent set by DMSO-only wells
# Outline: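 Agonism was scored as beta-arrestin recruitment to ProLink-fused GPR32 in stably transfected CHO-K1 cells, giving a chemiluminescent beta-Gal signal; compounds were incubated 90 min at 37 °C.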
# Sequence of UniProt O75388 (O75388 whole entry, looked up): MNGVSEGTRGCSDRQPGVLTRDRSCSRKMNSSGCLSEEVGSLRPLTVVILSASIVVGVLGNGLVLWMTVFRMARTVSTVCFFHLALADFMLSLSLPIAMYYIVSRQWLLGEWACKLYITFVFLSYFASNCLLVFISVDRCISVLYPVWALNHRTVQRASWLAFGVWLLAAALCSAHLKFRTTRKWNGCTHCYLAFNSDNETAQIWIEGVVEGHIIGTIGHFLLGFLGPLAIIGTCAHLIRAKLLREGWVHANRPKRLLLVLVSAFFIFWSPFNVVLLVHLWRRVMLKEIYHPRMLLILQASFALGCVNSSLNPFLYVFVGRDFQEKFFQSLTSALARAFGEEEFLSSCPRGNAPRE
row,SMILES,activation
1,Cc1oc2c(c1C(=O)Nc1ccc(OC(F)(F)F)cc1)C1=NCCN1C=N2,inactive: -14.6%
2,COc1ccc(-c2nc3ccccc3o2)cc1NC(=O)COc1cc(C)cc(C)c1,inactive: 2.17%
3,CCc1ccc(NC(=O)CCc2c(C)nn(-c3ccc(N4CCCC4)nn3)c2C)cc1,inactive: -16.9%
4,COc1ccc(NS(=O)(=O)c2cnc(N)nc2)cc1Cl,inactive: -6.75%
5,COc1ccc(NC(=O)CCS(=O)(=O)c2cc3c4c(c2)CCN4C(=O)CC3)c(OC)c1,inactive: -16.9%
6,CC(=O)c1ccc(Oc2ncnc3c2oc2ccccc23)cc1,inactive: 0.992%
7,Cc1cc(=O)[nH]c2nnc(SCC(N)=O)n12,inactive: 2.44%
8,O=C(COc1ccc2oc3c(c2c1)CCCC3)Nc1cccc(Br)c1,inactive: 6.17%
9,COc1ccc(C(=O)c2c(N)c(C(=O)Nc3ccccc3Cl)c3ccccn23)cc1,inactive: -0.874%
10,Cc1nnc(N2C(=O)c3oc4ccccc4c(=O)c3C2c2cccc(OCCC(C)C)c2)s1 (centres undefined),inactive: 0.609%
11,CCCCc1ccc(C(=O)c2c(N)c(C(=O)Nc3cccc(OC)c3)c3ccccn23)cc1,inactive: 15.5%
12,CC1CCN(C(=O)Cn2cc(SCC(=O)NCc3ccc(F)cc3)c3ccccc32)CC1,inactive: -26.9%
13,COc1cc(C(=O)NCCc2sc(-c3ccc(C)cc3)nc2C)cc(OC)c1OC,inactive: 29.5%
14,COCCCNC(=O)c1c(NC(=O)Cc2coc3cc(C)ccc23)sc2c1CCCC2,inactive: -23.8%
15,Cn1c(=O)c2cc(C(=O)NCCCN3CCN(c4ccc(F)cc4)CC3)sc2c2ccccc21,inactive: 4.21%
16,Cc1ccc(-c2noc(-c3ccc(N4CCOCC4)c([N+](=O)[O-])c3)n2)cc1,inactive: 4.72%
17,COc1ccc(NC(=O)CSc2nc3ccccc3nc2N2CCOCC2)c(OC)c1,inactive: -31.2%
18,Cc1ccc(C(=O)c2oc3ccccc3c2NC(=O)COc2ccccc2C)cc1,inactive: 15.6%
19,Cc1ccccc1CN1C(=O)c2ccccc2S(=O)c2ccc(C(=O)N3CCOCC3)cc21 (centres undefined),inactive: -4.4%
20,O=[N+]([O-])c1cc(-c2nc(-c3ccccc3)no2)ccc1NCc1ccco1,inactive: -3.34%
21,COc1ccc(N2CC(C(=O)NCCS(=O)(=O)N3CCN(c4ccccc4)CC3)CC2=O)cc1 (centres undefined),inactive: -11.6%

row,SMILES,activation
1,O=C(CCCN1CCN(c2ccccn2)CC1)c1ccc(F)cc1,inactive: 10.9%
2,COc1ccc(S(=O)(=O)N2CCC(Oc3cccc(C(F)(F)F)c3)CC2)cc1OC,inactive: -2.39%
3,CC(C)OCCCNC(=O)c1cn(C)c2ccc(S(=O)(=O)N(C)C3CCCCC3)cc2c1=O,inactive: 8.77%
4,CN(CC(=O)Nc1ccc(OC(F)(F)F)cc1)S(=O)(=O)c1ccc2c(c1)CCC(=O)N2,inactive: 12.1%
5,Cc1c(C(=O)N2CCCC2)oc2c1-c1nn(CC(=O)NCc3ccc(OC(C)C)cc3)cc1CC2,inactive: -5.83%
6,CCc1cccc(NC(=O)c2cnc(N3CCOCC3)c3ccccc23)c1,inactive: -13.8%
7,Cc1ccc(-n2c(=O)c3c(C)c(C(=O)N(C)C)sc3n(CC(=O)N(C)c3ccccc3)c2=O)cc1C,inactive: -8.54%
8,Cc1ccc(C)c(NC(=O)CSc2nc3nccnc3c(=O)n2CCc2c[nH]c3ccccc23)c1,inactive: 0.242%
9,CCOC(=O)c1cc(-c2ccccc2)n(CCCC(=O)Nc2ccc(C)c(Cl)c2)c1C,inactive: -22.9%
10,Cc1ccc2occ(-c3cc(-c4ccccc4)nc4c3COc3ccccc3-4)c(=O)c2c1,inactive: 19.3%
11,O=C(Nc1ccc(-c2nc3cc(Cl)ccc3o2)cc1)c1cc(Br)ccc1Cl,inactive: -23.9%
12,CCc1cccc(C)c1NC(=O)CN1CCN(Cc2ccccc2Cl)S1(=O)=O,inactive: -11.3%
13,CCc1ccc(NC(=O)Cn2c(=O)c3cccn3c3ccccc32)cc1,inactive: -25.4%
14,COc1ccc(-c2csc3nc(-c4ccc(Cl)cc4)oc(=O)c23)cc1,inactive: 12.1%
15,Cc1cccc(NC(=O)CCn2cnnn2)c1,inactive: -4.65%
16,COc1cc(C(=O)NC2(C(F)(F)F)C(=O)NC(C)=C2C#N)cc(OC)c1OC (centres undefined),inactive: -2.01%
17,CCN(CC)S(=O)(=O)c1ccc2c(c1)N(CC(=O)N1CCN(c3cccc(C)c3)C(C)C1)C(=O)CO2 (centres undefined),inactive: -27%
18,CCN(C(=O)CSc1nc2ccccc2c2nc(CCn3c(C)nc4ccccc43)nn12)c1cccc(C)c1,inactive: -3.7%
19,COc1cc(C(=O)Nc2ccc3nc4n(c(=O)c3c2)CCCCC4)cc(OC)c1OC,inactive: 5.9%
20,Cc1ccc(Nc2c(-c3ccc(N4CCOCC4)cc3)nc3ccc(C)cn23)cc1,inactive: -0.525%
21,CC(=O)c1ccc(N2CCN(C(=O)Nc3ccc(C)cc3)CC2)cc1,inactive: 1.66%

row,SMILES,activation
1,COc1ccc(NC(=O)CSc2nnc(N)s2)cc1,inactive: 6.37%
2,Cn1c(=O)oc2cc(S(=O)(=O)NC(CC(=O)O)c3cccc(Br)c3)ccc21 (centres undefined),inactive: -4.92%
3,Cc1cc(NC(=O)Nc2ccc3c(ccn3C)c2)sn1,inactive: 3.86%
4,Cc1cccc(CNC(=O)c2ccc3c(c2)N(C)CCS3)c1,inactive: -18.8%
5,Cc1cc(C)c(NC(=O)CSc2nc3ccccc3c3nc(-c4ccccc4)nn23)c(C)c1,inactive: -17.5%
6,CCc1ccc(C(c2ccccc2)c2c(C)[nH]c3ccccc23)s1 (centres undefined),inactive: 13%
7,CCOc1ccc(C2C(=O)N(C3CCCCC3)CC(=O)N2Cc2ccc(F)cc2)cc1OC (centres undefined),inactive: -14.1%
8,COc1ccc(NC(=O)Cn2c(=O)n(CCCC(=O)NCc3ccccc3Cl)c(=O)c3ccccc32)c(OC)c1,inactive: -4.27%
9,CC(C)(C)c1cc(C=O)cc(C(C)(C)C)c1O,inactive: -7.02%
10,Cc1ccccc1CNC(=O)Cn1nc(C)c2nn(-c3ccc(Cl)cc3)c(C)c2c1=O,inactive: -16.8%
11,CCOC(=O)c1sc2ccccc2c1S(=O)(=O)Nc1cc(OC)ccc1OC,inactive: -11.4%
12,COc1ccc(N2CCN(c3ncccc3-c3nc(-c4ccccc4C)no3)CC2)cc1,inactive: -5.45%
13,Cc1ccc(C)c(N2CCN(S(=O)(=O)c3ccc4[nH]c5c(c4c3)CCCC5)CC2)c1,inactive: 6%
14,COc1ccc(CNCc2c(C(=O)O)c(C)n(Cc3ccccc3C)c2C)cc1OC,inactive: -5.37%
15,COc1ccc(CNS(=O)(=O)c2ccc(C(=O)N(C)C)s2)cc1,inactive: -13%
16,N#Cc1nc(-c2ccc(COc3ccc(Cl)cc3)o2)oc1N1CCCCC1,inactive: -7.47%
17,CCOC(=O)c1scc(-c2ccccc2)c1S(=O)(=O)Nc1ccccc1OC,inactive: -52.6%
18,COc1ccccc1N1CCN(c2nc3c(S(=O)(=O)c4ccccc4)nnn3c3ccc(Cl)cc23)CC1,inactive: -5.09%
19,CCc1cccc(C)c1Nc1c(-c2ccc(F)cc2)nc2sccn12,inactive: -10.1%
20,COc1ccc(Cn2c(SCc3ccc(C(=O)NC4CCCCC4)cc3)nc3ccncc32)cc1,inactive: -1.28%
21,O=C1c2[nH]nc(-c3ccccc3O)c2C(c2cccc(OCc3ccccc3)c2)N1CCCO (centres undefined),inactive: 2.77%

row,SMILES,activation
1,Fc1ccc(N2CCN(Cc3nnc(-c4ccccc4Cl)o3)CC2)cc1,inactive: -0.339%
2,CCOc1ccc(NC(=O)CSc2ncc(S(=O)(=O)c3ccc(F)c(C)c3)c(=O)[nH]2)cc1,inactive: -6.1%
3,Cc1ccc2c(=O)c(C(=O)c3ccccc3)cn(CC(=O)NCc3ccccc3)c2n1,inactive: 3.3%
4,Cc1ccc(CNc2nc(-c3ccco3)nn2C(=O)c2ccccc2[N+](=O)[O-])cc1,inactive: -30.4%
5,Cn1c(=O)c2nc(SCC(=O)Nc3ccc(OC(F)(F)F)cc3)n(C)c2n(C)c1=O,inactive: 0.38%
6,COc1ccc(CC(=O)Nc2c(C(=O)N3CCN(c4ccccc4)CC3)oc3ccccc23)cc1OC,inactive: -13.8%
7,NC(=O)CC[C@H](N)C(=O)O,inactive: 4.96%
8,CCOC(=O)c1c(C)[nH]c(C)c1S(=O)(=O)N(C)CC(=O)Nc1ccc(OC)cc1,inactive: -2.99%
9,Cc1cccc(Cn2cc(S(=O)(=O)c3cccc(Cl)c3)c(=O)c3cc(F)c(N4CCOCC4)cc32)c1,inactive: -20.6%
10,O=C1c2ccccc2C(=O)C1c1ccc(Br)cc1,inactive: 21.2%
11,O=C1OCC2=C1C(c1cccc(Cl)c1)CC(=O)N2c1ccc(C(F)(F)F)cc1 (centres undefined),inactive: 8.76%
12,CCOc1ccccc1NC(=O)C1CCN(S(=O)(=O)c2c(C)noc2/C=C/c2ccco2)CC1,inactive: -24.7%
13,COc1cc(C(CC(=O)Nc2ccc(C)c(F)c2)N2Cc3ccccc3C2=O)cc(OC)c1OC (centres undefined),inactive: -5.99%
14,COc1ccc(-c2nc(CNC(=O)NC3CCCCC3)c(C)o2)cc1,inactive: 10.3%
15,CCN(CC)c1ncnc2c1cnn2-c1cc(Cl)ccc1C,active: 71.6%
16,O=C(CCn1c(=O)c2ccccc2n(CC(=O)Nc2cccc(F)c2)c1=O)NCCc1ccccc1,inactive: 26.6%
17,COc1ccc(OC)c(CNC(=O)c2ccc(N3Cc4ccccc4Oc4ncccc43)s2)c1,inactive: -18%
18,COc1cc(NC(=O)Cn2nc(C(F)(F)F)c3c2CCC3)cc(OC)c1OC,inactive: 37.7%
19,CC1CCCN(CCCNC(=O)c2cc(Sc3ccc(F)cc3)nc3ccccc23)C1 (centres undefined),inactive: -21.9%
20,Cc1noc(-c2ccc(-c3noc(-c4ccc(F)cc4)n3)cc2)n1,inactive: -2.28%
21,Cc1ccc(NC(=O)Cn2nc(-c3ccccc3)nc(Cc3ccc(Cl)cc3)c2=O)cc1,inactive: -12.9%

# Reference: PubChem BioAssay AID1346428 (National Center for Advancing Translational Sciences (NCATS), 2018)
